Source: PubChem BioAssay AID894 (National Center for Advancing Translational Sciences (NCATS), 2007)
In all, about 150,000 compounds went through this assay and about 6,500 (4.3%) were called active. Inconclusive means that the source gave no clear call. Such entries were picked first, then a sample of the others. The call rests on the fitted dose curve; in most records, active means well fitted inhibition curve with a large enough effect (not every such curve was filed as active); inconclusive means small, poorly fitted or top-dose-only effect, or another doubt; inactive means no such curve, though single readings can be large or run the other way. Potencies beside an inconclusive call are fits to weak or partial responses and may not hold up.

Molecular target: 15-hydroxyprostaglandin dehydrogenase [NAD(+)] (Homo sapiens) (UniProt P15428)
Experiment: qHTS Assay for Inhibitors of HPGD (15-Hydroxyprostaglandin Dehydrogenase)
Settings: purified HPGD, NADH fluorescence kinetic, PGE2 substrate; activity change, negative = inhibition: hits give low values
Outline: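 20 nM HPGD preincubated 15 min at room temperature with compound in 50 mM Tris-HCl pH 8, 0.01% Tween 20. Started with 1 mM NAD+ and 30 uM prostaglandin E2; NADH fluorescence (360/450 nm) read 5 times over 30-s intervals, last minus first.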
On the % scale 0 is the no-effect control and ±100 the full control effect; potency means the concentration at half of the fitted maximal effect; tags describe the fitted curve by direction and shape.

UniProt P15428, sequence (P15428 whole entry, looked up): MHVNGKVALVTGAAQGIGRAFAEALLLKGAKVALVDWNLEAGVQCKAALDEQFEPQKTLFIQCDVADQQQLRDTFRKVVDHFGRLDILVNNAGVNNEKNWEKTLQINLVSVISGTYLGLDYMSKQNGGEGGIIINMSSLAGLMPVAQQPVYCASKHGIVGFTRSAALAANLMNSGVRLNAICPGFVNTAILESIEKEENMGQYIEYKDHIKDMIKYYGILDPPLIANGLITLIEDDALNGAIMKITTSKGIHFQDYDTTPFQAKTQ

Activity change, negative = inhibition, inactive:
Cc1ccsc1/C=N/N=C1\C(=O)Nc2ccccc21 -9.73%
N#Cc1ccccc1NC(=O)c1cccc(COc2ccc(Cl)cc2Cl)c1 -14.4%
CN(C)C(=O)c1ccc2c(c1)C1C3CCC(C3)C1C(c1ccccc1)N2 (centres undefined) -9.73%
COc1ccc2nc(NNC(=O)C3COc4ccccc4O3)sc2c1 (centres undefined) -14.2%
Cn1cccc1Cc1nnc(SCC(=O)Nc2ccc(F)cc2)n1-c1ccc(F)cc1 -0.889%
Oc1ccc(CN2CCN(c3ccccc3)CC2)c2cccnc12 -12.8%
CC(=O)Nc1ccc(NCN2C(=O)[C@@H]3[C@H]4CC[C@H](C4)[C@@H]3C2=O)cc1 -9.17%
CC(=O)c1c(C)[nH]c(C(=O)Nc2ccc(C)cn2)c1C -12.5%
COc1ccc(C(=O)OCCNC(=O)c2ccncc2)cc1OC -8.99%
Cc1cccc(C)c1NC(=O)CN(C)CC(=O)Nc1ccccc1Br 0.862%
COC(=O)C1=C(C)N(Cc2ccc(C)cc2)C(=O)/C1=C\c1cc(OC)c(OC)c(OC)c1 -9.37%
CON(C)c1nc(OCC#N)nc(N(C)C)n1 -2.89%
O=C(NC1CCCC1)C(c1ccc(F)cc1)N(Cc1ccc(F)cc1)C(=O)c1ccn[nH]1 (centres undefined) -7.67%
CCOc1ccc(-c2[nH]ncc2Oc2ccccc2OC)c(O)c1 -18.4%
CCCn1c(-c2ccc(F)cc2)nc2c(NCCCN(C)C)nc(C)nc21 -27.1%
COCCn1c(Cc2ccccc2)nnc1SCc1ccc([N+](=O)[O-])cc1 1.61%
CSc1ccccc1-n1nnnc1SCC(=O)Nc1ccccc1C -0.324%
C(=N\n1cnnc1)/c1cccc2ccccc12 -26.4%
O=C(CCCc1nc(-c2ccccc2)no1)N1CCOCC1 -12.8%

Potency, inconclusive:
Cc1ccn2c(-c3csc(NCc4ccccc4)n3)c(C)nc2c1 31.6 µM [inhibitor, partial curve]
CC(CCc1ccco1)NC(=O)c1cc2c(-c3ccccc3F)nn(C)c2s1 (centres undefined) 35.5 µM [inhibitor, partial curve]
CN(C)c1oc(-c2ccccc2F)nc1C#N 25.1 µM [inhibitor, partial curve]
CCC(C)c1ccc(S(=O)(=O)N2CCN(C(=O)COc3ccc4c(C)cc(=O)oc4c3)CC2)cc1 (centres undefined) 3.16 µM [inhibitor, partial curve]
CCN(CC)C(=O)c1cc2c(=O)n3cccc(C)c3nc2n1C 14.1 µM [inhibitor, partial curve]
CCOc1ccc(-n2c(-c3ccco3)n[nH]c2=S)cc1 28.2 µM [inhibitor, partial curve]
Cc1cccc(Nc2nc(NCc3ccco3)c3ccccc3n2)c1 31.6 µM [inhibitor, partial curve]
CC(=O)Nc1ccc(-c2cn3cc(C)ccc3n2)cc1 20 µM [inhibitor, partial curve]
Cc1sc2ncnc(Sc3nnnn3-c3ccccc3)c2c1C 35.5 µM [inhibitor, single point]
Cc1nc(-c2ccccc2)sc1-c1nc(-c2ccncc2)ncc1S(=O)(=O)c1ccccc1 35.5 µM [inhibitor, single point]
O=C(CCS(=O)(=O)c1ccccc1)Nc1ccc(-c2nc3ccccc3s2)cc1 28.2 µM [inhibitor, single point]
Cc1cccc(-n2c(=O)[nH]c3c(C(N)=O)nc(-c4ccccc4Cl)nc32)c1 20 µM [inhibitor, partial curve]
COc1ccccc1-c1cc(C(=O)NCc2ccc(Cl)cc2)no1 35.5 µM [inhibitor, partial curve]
CCc1c(-c2ccccc2)nc2nc(C)c(C)nn12 28.2 µM [inhibitor, single point]
O=C(/C=C/c1ccco1)NC1=NCCS1 25.1 µM [inhibitor, partial curve]
CCCCCCC(=O)Cc1cc(OC)c(OC)cc1C=C(C(=O)OCC)C(=O)OCC 31.6 µM [inhibitor, partial curve, poor fit]
O=C(Nc1nnc(COc2ccccc2)s1)c1ccco1 31.6 µM [inhibitor, partial curve]
CN(C)c1ccc(-c2noc(-c3ccccc3O)n2)cc1 28.2 µM [inhibitor, partial curve]
COC(=O)C1=C(C)NC2=C(C(=O)CC(C)(C)C2)C1c1ccccn1 (centres undefined) 31.6 µM [inhibitor, partial curve]
CCOc1ccc(CC(=O)Nc2sc(Cc3ccccc3)cc2C(N)=O)cc1OCC 31.6 µM [inhibitor, partial curve]
COCc1cc(C)nc(SCC(=O)Nc2ccc(C)c(C)c2)c1C#N 31.6 µM [inhibitor, single point]
CCCCCCc1c(O)c2ccccc2[nH]c1=O 25.1 µM [inhibitor, partial curve]
CCCCCC1CC1C(=O)N/N=C/c1ccc(N(C)C)cc1 (centres undefined) 11.2 µM [inhibitor, partial curve]
CCc1ccc(-c2cc(C(F)(F)F)n3nc(C(=O)Nc4cnn(Cc5ccc(C)cc5)c4)cc3n2)s1 15.8 µM [inhibitor, partial curve]
COc1ccc(Cc2nnc(-c3ccc(F)cc3)o2)cc1OC 28.2 µM [inhibitor, single point]
Cc1ccccc1OCCn1nc(C(=O)O)c2ccccc2c1=O 25.1 µM [inhibitor, single point]
Cc1ccc(-c2nc3cc(Cl)ccc3o2)cc1 35.5 µM [inhibitor, single point]
COc1ccc(Sc2nc3ccccc3n3c(C(F)(F)F)nnc23)cc1 25.1 µM [inhibitor, single point]
CC(C)(C)C(=O)NC(Nc1cccc2cccnc12)C(Cl)(Cl)Cl (centres undefined) 35.5 µM [inhibitor, partial curve]
Cc1ccc(C)c2sc(NC(=O)c3ccc(N4C(=O)CCC4=O)cc3)nc12 31.6 µM [inhibitor, single point]
O=C(CSc1nnc(-c2ccc(Cl)s2)o1)N1CCc2ccccc21 31.6 µM [inhibitor, single point]
COc1nc(Cl)cn(-c2ccc(Cl)cc2)c1=O 31.6 µM [inhibitor, single point]
COc1ccc(Cl)cc1C(=O)Nn1c(-c2cccs2)nc2ccccc2c1=O 35.5 µM [inhibitor, partial curve]
CCCCCOc1ccc(NC(=O)CSc2cccc3cccnc23)cc1 31.6 µM [inhibitor, partial curve]
Cc1c(N)cccc1-c1nc2ccccc2[nH]1 25.1 µM [inhibitor, partial curve]
CC(C)(C)c1cc(NCCCn2ccnc2)n2ncc(-c3ccc(Cl)cc3)c2n1 31.6 µM [inhibitor, partial curve]
COc1ccc(C(=O)N=C2CCC(C#N)=C3c4cc(OC)c(OC)cc4CCN23)cc1 35.5 µM [inhibitor, single point]
CCCc1nc(SCC(=O)N2CCCc3ccccc32)c2c(=O)n(C)c(=O)n(C)c2n1 39.8 µM [inhibitor, single point]
Cc1cccc(N=c2oc3cc(O)ccc3cc2C(N)=O)c1 25.1 µM [inhibitor, partial curve]
CCOC(=O)c1sc(-c2ccccc2)cc1N 20 µM [inhibitor, partial curve]

Potency, active:
COc1ccc(Br)cc1C1CC(=O)N2CN(Cc3ccccc3)CSC2=C1C#N (centres undefined) 7.08 µM
COc1ccccc1CNC(=O)C1CCC1 14.1 µM
CCOC(=O)N1CCc2c(sc(NC(=O)c3ccc(Cl)s3)c2C(N)=O)C1 31.6 µM
O=C(CSc1nncc2ccccc12)N1CCOCC1 28.2 µM
CC1=C([N+](=O)[O-])C(c2cccc(Br)c2)C2=C(N1)c1ccccc1C2=O (centres undefined) 15.8 µM
COc1cc(/C=C2/C(=O)ON=C2c2ccccc2)ccc1O 11.2 µM
Cc1ccccc1-c1cc(C(=O)Nc2sc(C(=O)OC(C)C)c(C)c2C#N)c2ccccc2n1 15.8 µM
CCn1nnc(NC(=O)c2cccnc2)n1 25.1 µM
CCn1c(=O)cc(SCC(=O)NCc2ccc(C)o2)c2ccccc21 28.2 µM
CC(C)Cn1c(SCc2nnc(-c3cccs3)o2)nc(O)cc1=O 15.8 µM
Cc1nn(-c2ccccc2)c(Cl)c1/C=N/Nc1ccc(S(=O)(=O)Nc2ccccc2C(=O)O)cc1[N+](=O)[O-] 15.8 µM
C1=Nc2c(NCc3ccccc3)ncnc2Oc2ccccc21 25.1 µM
CS(=O)(=O)Nc1ccc(C(=O)N2CCCCC2)cc1 14.1 µM
O=C(NCc1ccccc1)c1ccc(Br)cc1Br 3.55 µM
CC12CCC(C(=O)NCc3ccc4c(c3)OCO4)(OC1=O)C2(C)C (centres undefined) 31.6 µM
